# According to article PMC12733242, “The Functional Role of Gate Loop Residues in Arrestin Binding to GPCRs” (International Journal of Molecular Sciences, 2025):
# B1: bovine arrestin-1 Gly292Ala (natural protein)
# chain: not shown
# modifications: [14C]leucine incorporated
# notes: arrestin-1, bovine; bovine residue numbers; source: cell-free translation, radiolabelled; translation mix after centrifugation
# Biological target: T1, unphosphorylated light-activated bovine rhodopsin (bovine, UniProt P02699 1-348, light-activated)
# T1 construct: rhodopsin, bovine, wild type, in native disk membranes; Native protein; source: purified bovine rhodopsin in native disk membranes, unphosphorylated
# T1 sequence (P02699 whole entry): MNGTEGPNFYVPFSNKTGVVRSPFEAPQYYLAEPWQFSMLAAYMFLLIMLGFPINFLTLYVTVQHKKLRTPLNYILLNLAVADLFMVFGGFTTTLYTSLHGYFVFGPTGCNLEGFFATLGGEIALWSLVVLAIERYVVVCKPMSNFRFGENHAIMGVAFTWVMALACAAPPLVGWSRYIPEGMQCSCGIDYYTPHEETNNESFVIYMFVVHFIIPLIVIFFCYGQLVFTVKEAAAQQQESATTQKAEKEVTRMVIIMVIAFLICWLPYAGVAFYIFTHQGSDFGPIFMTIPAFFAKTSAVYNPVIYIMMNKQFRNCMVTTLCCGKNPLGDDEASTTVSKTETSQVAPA
# Assay: radioligand binding; direct binding assay: 1 nM [14C]leucine-labelled arrestin-1 (50 fmol) from cell-free translation incubated with 0.3 μg of P-Rh* or Rh* (7.8 pmol) in 50 mM Tris-HCl pH 7.4, 100 mM potassium acetate, 1 mM EDTA, 1 mM DTT, 5 min at 37 °C under room light; bound arrestin separated with rhodopsin-containing membranes by gel filtration on Sepharose CL-2B at 4 °C, scintillation counting; binding in …
# Settings: one partner purified
binder,measurement,value
B1,increase of binding over WT,~60%
